Source: PubChem BioAssay AID1963576 (National Center for Advancing Translational Sciences (NCATS), 2024)
Screen size: about 46,000 compounds; about 60 (0.1%) were called active. Inconclusive results (about 3%) are left out. Calls follow the shape of the dose curve; as a rule, active = well fitted inhibition curve with a large enough effect; inconclusive = small, poorly fitted or top-dose-only effect; inactive = no such curve, though single readings can be large or run the other way. Some of the results follow.

experiment: Primary qHTS assay for Inhibitors of ovarian cancer metastasis using an organotypic tumor microenvironment (TME) model.; also: nearly all actives have a fitted effect of over 65% in size;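 as to activity change, negative = inhibition: plate controls were DMSO wells for no effect and tomatine positive control wells for full effect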; conditions: SKOV3ip1-GFP adhesion/invasion on 3D omental model, fluorescence; series mostly up to 45.8 µM; activity change, negative = inhibition: at the top concentration
Method in brief: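 qHTS, 4-pt dose (0.36-46 umol/L); SKOV3ip1-GFP, 1,200 cells/well, no FBS; primary omental fibroblast/mesothelial co-culture 48 h pre-grown; 2 h RT + 16 h 37 C; PBS wash, 4% PFA; GFP count 488/509 nm.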

Activity change, negative = inhibition, inactive:
O=C(NCCc1ccccc1)c1ccc(CSc2nc3cccnc3n2Cc2ccccc2)cc1 5.13%
CC(NC(=O)CCc1cn(Cc2ccccc2Cl)c2ccccc12)c1ccccc1 (stereo not given) 9.34%
CCc1ccccc1NC(=O)Cn1nnc(C(=O)NCc2ccco2)c1N -2.9%
CCOC(=O)c1nnc2c(-c3ccc(Cl)cc3)c(C)nn2c1N 4.44%
O=C(CCS(=O)(=O)c1ccccc1)N(Cc1cccnc1)c1nc2c(F)cccc2s1 -3.09%
Cc1ccc(-c2nc(CS(=O)(=O)CC(=O)NC(C)CCc3ccccc3)c(C)o2)cc1 (stereo not given) 9.04%
Cc1c(NC(=O)Nc2cccc(C(F)(F)F)c2)sc2nc3n(c(=O)c12)CCC(C)CC3 (stereo not given) -19.1%
COc1ccc(/C=C/c2nc(C#N)c(N3CCC(C(N)=O)CC3)o2)cc1OC -2.32%
COCCN1C(=O)N(c2cccc(OC)c2)C(=O)C1CC(=O)Nc1ccccc1 (stereo not given) -1.25%
CCCCc1nn2c(=O)cc(COC(=O)c3cccc(NC(=O)c4cccs4)c3)nc2s1 6.58%
COc1ccc(OC)c(CNS(=O)(=O)c2cc(-c3onc(C)c3C)ccc2C)c1 -0.955%
CCN(CC)C(=O)c1sc2c(c1C)c(=O)n(-c1ccc(C)c(C)c1)c(=O)n2CC(=O)Nc1ccc(OC)cc1OC -1.5%
CN1C(=O)Cc2cc(S(=O)(=O)CCC(=O)Nc3ccc(Cl)cc3)ccc21 -1.64%
COc1ccc(CCNC(=O)c2cnn(-c3cccc(C)c3)c2C2CCNCC2)cc1OC 9.68%
CN(C)CCC=C1c2ccccc2COc2ccc(CC(=O)O)cc21 0.933%
CCOc1ccc2c(c1)c(=O)c(C(=O)c1ccccc1)cn2Cc1ccccc1F 2.82%
CC(=O)c1ccc(NC(=O)c2cc3c([nH]c2=O)CC(c2ccccc2)CC3=O)cc1 (stereo not given) -15.4%
Cc1ccc(S(=O)(=O)c2[nH]c(-c3ccccc3)nc2SC(C)C(=O)O)cc1 (stereo not given) 1.97%
COc1cc2ncnc(Nc3cccc(Br)c3)c2cc1OC -17.3%
COc1ccc(N2CCN(CCCNC(=O)c3nnc(Cc4ccccc4Cl)o3)CC2)cc1 2.58%
Cc1cc(C)n2c(Nc3ccc4c(c3)OCCO4)c(-c3ccccc3)nc2n1 -9.68%
COc1ccc(CNC(=O)C2CCN(C(=O)c3cnn(-c4ccccc4)c3-n3cccc3)CC2)cc1 5.74%
Cc1ccc(NC(=O)CSc2nnc(-c3cc4occc4n3C)n2-c2ccccc2C)c(C)c1 -26.6%
Oc1c(Cl)cc(Cl)c2cccnc12 0.603%
COc1ccc(-n2c(SC)nc3sc4c(c3c2=O)CCN(C(C)=O)C4)cc1 8.36%
FC(F)(F)c1cccc(N2CCN(c3nc4ccccc4n4cnnc34)CC2)c1 4.92%
CCS(=O)(=O)N1CCc2cc(C(=O)NC(C)c3ccccc3)ccc21 (stereo not given) -4.63%
CC(C)Oc1ccc(CNC(=O)CN2C(=O)c3cccnc3Oc3ccc(Cl)cc32)cc1 16.8%
O=c1c2sc3ccccc3c2n(Cc2cccc(C(F)(F)F)c2)c(=O)n1-c1ccccc1 9.54%
COC(=O)c1ccccc1NC(=O)CSc1n[nH]c(C)n1 -3.09%
Cc1ccn2c(=O)cc(COc3ccc(NC(=O)C(C)(C)C)cc3)nc2c1 -6.64%
CCOC(=O)c1ccc(CN(Cc2ccc(F)cc2)S(=O)(=O)c2ccc(F)c(C(=O)Nc3ccccc3C(F)(F)F)c2)cc1 -5.68%
Cn1c2c(c(=O)n(C)c1=O)C(c1ccccc1C(F)(F)F)CC(=O)N2 (stereo not given) 2.12%
CC(C)(CC(=O)NCc1ccc(Cl)cc1Cl)CC1=NS(=O)(=O)c2ccccc2N1 -16.3%
CCCCCn1c(=N)c(S(=O)(=O)c2ccc(C)cc2)cc2c(=O)n3cc(C)ccc3nc21 3.35%
Cn1c(COc2ccccc2C(C)(C)C)nc2ccccc21 2.07%
COc1cc(Cl)c(C)cc1NC(=O)C1CCCN(c2ncnc3onc(-c4ccc(F)cc4)c23)C1 (stereo not given) 0.487%
CCc1ccccc1N(CC)C(=O)C(=O)Nc1ccc2nc3n(c(=O)c2c1)CCCCC3 2.76%
Cc1ccc(C(=O)N2CCN(c3cccc(Cl)c3)CC2)cc1-n1c(C)nc2cccnc21 27.7%
CCOc1ccccc1NC(=O)CN1C(=O)CC(c2ccco2)Sc2ccccc21 (stereo not given) 2.18%
Cc1cc(C)cc(C(=O)N(Cc2nc(-c3ccc(Cl)cc3)no2)C(C)C)c1 -28.3%
Cc1cc(NC(=O)CCCn2c(C)c3cnn(-c4ccccc4)c(=O)c3c2C)ccc1Br 16.9%
O=S(=O)(c1ccc2ccccc2c1)n1nc(-c2ccco2)nc1NCc1ccc(F)cc1 -4.75%
COCCCNC(=O)c1c(NC(=O)c2nc(S(C)(=O)=O)ncc2Cl)sc2c1CCCC2 -3.45%
Cc1ccc(C(=O)Nc2ccc(-c3nc4ccccc4s3)c(O)c2)c(C)c1 -7.17%
COC(=O)c1ccc(OCC(O)Cn2cnc3cc(C)c(C)cc32)cc1 (stereo not given) 2.45%
CCN(C(=O)CSc1ncc(S(=O)(=O)c2ccc(C)c(Cl)c2)c(=O)[nH]1)c1cccc(C)c1 7.42%
COCCNC(=O)C(=O)NCC(c1ccc2c(c1)OCO2)N1CCOCC1 (stereo not given) -21.8%
Cc1ccc(CNC(=O)c2cnc(N(C)C)nc2)cc1 -5.67%
CCCCN(C)CCNC(=O)c1cc(=O)[nH]c2ccc(S(=O)(=O)N3CCCCCC3)cc12 -2.14%
Cc1ccc(NC(=O)CS(=O)(=O)c2nc(-c3ccc(C)cc3)cn2-c2ccc(C)cc2)cc1 5.23%
COc1ccc(-c2nc(C(=O)Nc3cccc(C(C)=O)c3)nn2-c2ccc(Cl)cc2)cc1 5.24%
COc1ccc(NC(=O)c2oc3ccccc3c2NC(=O)c2cc(=O)c3c(C)cc(C)cc3o2)cc1 -0.148%
Cc1ccc(NC(=O)c2ncn(-c3ccccc3)n2)cc1Cl -5.15%
Cc1nc(-n2nc(C)c(Cc3ccccc3Cl)c2C)sc1C(=O)N1CCCCC1C (stereo not given) 0.0491%
COc1ccc(OC)c(Nc2nc3ccccc3n3c(C)nnc23)c1 1.62%
C#CC(C)(CC)NC(=O)Cn1nnc(-c2ccc(OCc3ccccc3F)cc2)n1 (stereo not given) 0.821%
O=C(Nc1cc(-c2nc3cc(Cl)ccc3o2)ccc1Cl)c1cccs1 61.9%
O=C(CSc1nnc(CNC(=O)c2c(F)cccc2Cl)o1)Nc1ccccc1F 3.64%
CCC(=O)N1c2ccccc2CC1C(=O)NCc1ccccc1C (stereo not given) 6.58%
COc1ccc(OC)c(NC(=O)c2cc3c(s2)-c2ccccc2SC3)c1 -6.22%
Cc1c(NS(=O)(=O)c2cccc(C(=O)O)c2)c(=O)n(-c2ccccc2)n1C -3.52%
COc1ccccc1-c1c(C)nn2c(N3CCN(c4cccc(Cl)c4)CC3)cc(C)nc12 11.1%
COCCCNC(=O)c1cc2n(n1)CCCN(Cc1ccc(C)cc1)C2=O -1.79%
CC(=O)SC[C@@H](C)C(=O)N1CCC[C@H]1C(=O)N[C@@H](Cc1ccccc1)C(=O)O -4.46%
CNc1nc(Oc2ccc(=O)n(C)n2)nc(N2CCOCC2)n1 -15.6%
COc1cccc(Cn2nnc3c(=O)[nH]c(C4CCCN(C(=O)c5ccc(C)cc5)C4)nc32)c1 (stereo not given) -1.1%
CS(=O)(=O)c1ncc(N(Cc2ccco2)Cc2ccco2)c(C(=O)Nc2ccccc2Br)n1 44%
Cc1ccc(-n2ncc(C(=O)NC3CCCC3)c2C2CCN(C(=O)OC(C)(C)C)CC2)c(C)c1 4.79%
CCc1nc2nc(C)cc(Nc3ccc(OC)cc3)n2n1 1.59%
COc1cccc(CN(Cc2ccco2)c2cnc(S(C)(=O)=O)nc2C(=O)Nc2cccc(Cl)c2C)c1 -0.54%
Cn1c(SCC(=O)N2CCCc3ccccc32)ncc(C(=O)Nc2ccc(Cl)cc2)c1=O -0.714%
CSCCC(NS(=O)(=O)c1ccc2c(c1)oc(=O)n2C)C(=O)NCCc1ccc(C)cc1 (stereo not given) 10.8%
CCS(=O)(=O)N1CCC(C(=O)NCCC(C)C)CC1 0.296%
Cc1ccc(-c2nnc(Nc3cccc(Cl)c3)c3ccccc23)cc1S(=O)(=O)NCC1CCCO1 (stereo not given) -6.81%
Cc1ccc(S(=O)(=O)c2cnc(SCC(=O)Nc3ccc4c(c3)OCCO4)[nH]c2=O)cc1 -1.02%

outcome, inactive:
O=C(NCCO)C(=O)NCC(c1ccc2c(c1)OCO2)N1CCOCC1 (stereo not given)
CC(C)CN(c1ccccc1)S(=O)(=O)c1nnc(NC(=O)C2CCCCC2)s1
O=C(NCc1ccc(Cl)cc1)C(=O)NCC(c1ccc2c(c1)OCO2)N1CCOCC1 (stereo not given)
Cc1cc(F)ccc1NC(=O)CCS(=O)(=O)c1cc2c3c(c1)CCN3C(=O)CC2
O=C(c1ccccc1)N1CCC(c2nc3ccccc3o2)CC1
COc1ccc(/C=C/C(=O)Nc2cc(-c3nc4ccccc4o3)ccc2OC)cc1
CC(=O)c1ccc(NC(=O)CSc2nnc(-c3ccncc3)n2-c2ccccc2)cc1
CCS(=O)(=O)N1CC(=O)N(c2cc(C)cc(C)c2)C(C)(C(=O)NC2CCCCC2)C1 (stereo not given)
Cc1ccc2c(c1)N(C(=O)Nc1ccc(Br)cc1F)CCO2
COC(=O)c1ccc(NS(=O)(=O)c2ccc3c(c2)n(C)c(=O)c(=O)n3C)cc1
COc1ccc(S(=O)(=O)c2cc3cc(C(C)(C)C)cc(O)c3oc2=O)cc1
O=C(c1ccc2c(c1)N(Cc1cccc(Cl)c1)C(=O)c1ccccc1S2(=O)=O)N1CCc2ccccc21
CCNC(=O)CC1C(=O)N(c2ccc(F)cc2)C(=O)N1Cc1ccc(OC)c(OC)c1 (stereo not given)
Cc1cc(NC(=O)c2ccc(-c3ccc(Cl)cc3)o2)cc(-c2nc3ncccc3o2)c1O
CCOc1ccccc1NC(=O)CC1C(=O)NCCN1C(=O)c1ccc(F)cc1 (stereo not given)
COc1ccc(COC(=O)c2[nH]c3c(c2C)C(=O)CC(c2ccc(OC)c(OC)c2)C3)cc1 (stereo not given)
Cc1ccc(C)c(NS(=O)(=O)c2ccc3c4c(cccc24)C(=O)N3)c1
CC1=C(C(=O)OCc2ccc(C)cc2)C(c2c(Cl)cccc2Cl)CC(=O)N1 (stereo not given)
CN(C1CCCCC1)S(=O)(=O)c1ccc2c(c1)c(=O)c(C(=O)NCCc1ccc(Cl)cc1)cn2C
